Data: the supplement of paper PMC4604168 (melanoma cell lines)
The other results are listed elsewhere or left out. Many values rest on one well or one pass, so single values are uncertain.

Legend:
Assay in all cases: cell count relative to DMSO control; melanoma cells; higher = more viable cells
Settings in all cases: library dose: standard library concentration; 72 h
G361 = tested on: G361
IPC-298 = tested on: IPC-298
IST-MEL1 = tested on: IST-MEL1
LB2518-MEL = tested on: LB2518-MEL
LOXIMVI = tested on: LOXIMVI
MEL-HO = tested on: MEL-HO
MZ2-MEL = tested on: MZ2-MEL
MeWo = tested on: MeWo
RPMI7951 = tested on: RPMI7951
RVH-421 = tested on: RVH-421
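Note: cells treated in 1,536-well plates, then fixed and DAPI-stained, with nuclei counted from automated high-throughput microscope images.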

Row | SMILES | cell count (G361) [%] | cell count (IPC-298) [%] | cell count (IST-MEL1) [%] | cell count (LB2518-MEL) [%] | cell count (LOXIMVI) [%] | cell count (MEL-HO) [%] | cell count (MZ2-MEL) [%] | cell count (MeWo) [%] | cell count (RPMI7951) [%] | cell count (RVH-421) [%]
1 | CC(C)C[C@H](NC(=O)[C@H](Cc1ccccc1)NC(=O)c1cnccn1)B(O)O [Bortezomib] + CC(=O)c1c(C)c2cnc(Nc3ccc(N4CCNCC4)cn3)nc2n(C2CCCC2)c1=O [palbociclib] (first compound 0.005 µM, partner dose 0.2 µM) | 0.472 | 15.8 | 15 | 3.02 | 25.3 | 34.3 | 6.44 | 18.2 | 5.69 | 13.3
2 | COc1ccc(C2=N[C@@H](c3ccc(Cl)cc3)[C@@H](c3ccc(Cl)cc3)N2C(=O)N2CCNC(=O)C2)c(OC(C)C)c1 [Nutlin-3] + O=c1cc(-c2cccc3c2Sc2ccccc2S3)oc(N2CCOCC2)c1 [KU55933] (first compound 0.5 µM, partner dose 5 µM) | 52.6 | 72 | 82.5 | 74.3 | 86.1 | 74.2 | 76.5 | 82.3 | 90.4 | 17.4
3 | CC(C)C[C@H](NC(=O)[C@H](Cc1ccccc1)NC(=O)c1cnccn1)B(O)O [Bortezomib] + Cn1nnc2c(C(N)=O)ncn2c1=O [temozolomide] (first compound 0.005 µM, partner dose 10 µM) | 0.553 | 7.14 | 9.28 | 1.84 | 9.83 | 22.3 | 3.53 | 17 | 2.2 | 3.35
4 | Cn1c(=O)n(-c2ccc(C(C)(C)C#N)cc2)c2c3cc(-c4cnc5ccccc5c4)ccc3ncc21 + C=CCn1c(=O)c2cnc(Nc3ccc(N4CCN(C)CC4)cc3)nc2n1-c1cccc(C(C)(C)O)n1 [MK1775] (first compound 0.02 µM, partner dose 0.1 µM) | 54.7 | 60.8 | 72.8 | 56.8 | 72 | 69.8 | 71.1 | 53.5 | 36.8 | 78.1
5 | COc1ccc(C2=N[C@@H](c3ccc(Cl)cc3)[C@@H](c3ccc(Cl)cc3)N2C(=O)N2CCNC(=O)C2)c(OC(C)C)c1 [Nutlin-3] + CN(c1ncccc1CNc1nc(Nc2ccc3c(c2)CC(=O)N3)ncc1C(F)(F)F)S(C)(=O)=O [PF562271] (first compound 0.5 µM, partner dose 0.4 µM) | 72.5 | 88.4 | 92.2 | 72.5 | 79.5 | 97.9 | 91.4 | 107 | 62.3 | 60.3
6 | Cc1cc(Nc2cc(N3CCN(C)CC3)nc(/C=C/c3ccccc3)n2)n[nH]1 + CC(C)(C)c1cnc(CSc2cnc(NC(=O)C3CCNCC3)s2)o1 [SNS-032] (first compound 0.2 µM, partner dose 0.05 µM) | 96.5 | 97.7 | 104 | 64.9 | 72.3 | 98.3 | 83.3 | 76.8 | 29.7 | 59.3
7 | CC(C)C[C@H](NC(=O)[C@H](Cc1ccccc1)NC(=O)c1cnccn1)B(O)O [Bortezomib] + CCCS(=O)(=O)Nc1ccc(F)c(C(=O)c2c[nH]c3ncc(Cl)cc23)c1F [PLX4720] (first compound 0.005 µM, partner dose 0.4 µM) | 0.797 | 10.4 | 15.6 | 2.25 | 13.4 | 32.4 | 3.8 | 15.7 | 6.68 | 82.1
8 | Cc1cc(Nc2cc(N3CCN(C)CC3)nc(/C=C/c3ccccc3)n2)n[nH]1 + c1cc(-c2cnn3cc(-c4ccc(OCCN5CCCCC5)cc4)cnc23)ccn1 [Dorsomorphin] (first compound 0.2 µM, partner dose 2 µM) | 41.8 | 76.6 | 84.3 | 64.2 | 107 | 85.4 | 60.2 | 46.8 | 66.2 | 82
9 | Cn1c(=O)n(-c2ccc(C(C)(C)C#N)cc2)c2c3cc(-c4cnc5ccccc5c4)ccc3ncc21 + COc1cc(Nc2ncc(F)c(Nc3ccc4c(n3)NC(=O)C(C)(C)O4)n2)cc(OC)c1OC [Tamatinib] (first compound 0.02 µM, partner dose 2 µM) | 46.4 | 74 | 23.3 | 75.8 | 30.2 | 58.8 | 61.8 | 51.6 | 19.7 | 63.9
10 | COc1ccc(C2=N[C@@H](c3ccc(Cl)cc3)[C@@H](c3ccc(Cl)cc3)N2C(=O)N2CCNC(=O)C2)c(OC(C)C)c1 [Nutlin-3] + Nc1ccn([C@@H]2O[C@H](CO)[C@@H](O)C2(F)F)c(=O)n1 [gemcitabine] (first compound 0.5 µM, partner dose 0.002 µM) | 38.3 | 40.4 | 35.4 | 42.7 | 71.8 | 72.9 | 71.3 | 40.2 | 59.2 | 47.4
11 | Cn1c(=O)n(-c2ccc(C(C)(C)C#N)cc2)c2c3cc(-c4cnc5ccccc5c4)ccc3ncc21 + O=C(CCCCCCC(=O)Nc1ccccc1)NO [vorinostat] (first compound 0.02 µM, partner dose 0.4 µM) | 58.4 | 89.1 | 86.2 | 75 | 63.7 | 71.3 | 116 | 71.2 | 69.8 | 78.9
12 | CC(C)C[C@H](NC(=O)[C@H](Cc1ccccc1)NC(=O)c1cnccn1)B(O)O [Bortezomib] + COc1cc2c(Oc3ccc4[nH]c(C)cc4c3F)ncnc2cc1OCCCN1CCCC1 [cediranib] (first compound 0.005 µM, partner dose 2 µM) | 0.491 | 21.8 | 5.86 | 3.36 | 19.1 | 38.1 | 4.32 | 14.1 | 4.47 | 6.94
13 | Cc1cn(-c2cc(NC(=O)c3ccc(C)c(Nc4nccc(-c5cccnc5)n4)c3)cc(C(F)(F)F)c2)cn1 [nilotinib] + Cn1cnc2c(F)c(Nc3ccc(Br)cc3Cl)c(C(=O)NOCCO)cc21 [selumetinib] (first compound 1 µM, partner dose 0.075 µM) | 59.1 | 47 | 93.9 | 32.4 | 156 | 72.8 | 63.4 | 66 | 82.1 | 58.5
14 | Cc1cn(-c2cc(NC(=O)c3ccc(C)c(Nc4nccc(-c5cccnc5)n4)c3)cc(C(F)(F)F)c2)cn1 [nilotinib] + C=CCNC1=C2C[C@@H](C)C[C@H](OC)[C@H](O)[C@@H](C)/C=C(\C)[C@H](OC(N)=O)[C@@H](OC)/C=C\C=C(/C)C(=O)NC(=CC1=O)C2=O [Tanespimycin] (first compound 1 µM, partner dose 0.01 µM) | 57.4 | 87.2 | 54.4 | 73.8 | 133 | 71.9 | 88.8 | 58.3 | 20 | 89.3
15 | COc1ccc(C2=N[C@@H](c3ccc(Cl)cc3)[C@@H](c3ccc(Cl)cc3)N2C(=O)N2CCNC(=O)C2)c(OC(C)C)c1 [Nutlin-3] + COc1cc2ncnc(Nc3ccc(Oc4ccccc4)cc3)c2cc1OC [SrcI1] (first compound 0.5 µM, partner dose 10 µM) | 40.2 | 72.3 | 80 | 117 | 84.1 | 79.1 | 69.8 | 65.5 | 45.9 | 74.6
16 | Cc1cn(-c2cc(NC(=O)c3ccc(C)c(Nc4nccc(-c5cccnc5)n4)c3)cc(C(F)(F)F)c2)cn1 [nilotinib] + Cn1sc(=O)n(Cc2ccccc2)c1=O [TDZD-8] (first compound 1 µM, partner dose 2 µM) | 91.3 | 117 | 107 | 92.3 | 94.5 | 97.6 | 117 | 106 | 99.9 | 84.8
17 | CC(C)C[C@H](NC(=O)[C@H](Cc1ccccc1)NC(=O)c1cnccn1)B(O)O [Bortezomib] + Nc1nc(F)nc2c1ncn2[C@@H]1O[C@H](CO)[C@@H](O)[C@@H]1O [fludarabine] (first compound 0.005 µM, partner dose 1 µM) | 2.69 | 5.43 | 8.1 | 4.52 | 39 | 36 | 7.31 | 13.7 | 2.26 | 17.5
18 | CC(C)C[C@H](NC(=O)[C@H](Cc1ccccc1)NC(=O)c1cnccn1)B(O)O [Bortezomib] + CS(=O)(=O)CCNCc1ccc(-c2ccc3ncnc(Nc4ccc(OCc5cccc(F)c5)c(Cl)c4)c3c2)o1 [lapatinib] (first compound 0.005 µM, partner dose 4 µM) | 0.412 | 7.23 | 2.91 | 1.45 | 27.9 | 33.5 | 4.14 | 18.2 | 1.41 | 5.01
19 | Cc1cn(-c2cc(NC(=O)c3ccc(C)c(Nc4nccc(-c5cccnc5)n4)c3)cc(C(F)(F)F)c2)cn1 [nilotinib] + CO[C@@H]1[C@H](N(C)C(=O)c2ccccc2)C[C@H]2O[C@]1(C)n1c3ccccc3c3c4c(c5c6ccccc6n2c5c31)C(=O)NC4 [Midostaurin] (first compound 1 µM, partner dose 0.4 µM) | 47.6 | 54.4 | 81 | 62.1 | 63 | 65.4 | 53 | 55 | 28.8 | 78.7
